# Laboratory results as given in PubChem BioAssay (NCATS).
# Where “and” joins values, the source holds several entries; their conditions need not be identical. Identical values can stand only once. The shares of active, inactive and inconclusive entries below differ from those in the screen. Potencies beside an inconclusive call are fits to weak or partial responses and may not hold up. Calls of active or inactive are those of the source. Calls follow the shape of the dose curve; as a rule, active = well fitted cell-killing curve with a large enough effect; inconclusive = small, poorly fitted or top-dose-only effect, or effect the other way; inactive = no such curve, though single readings can be large or run the other way.
# Test: Viability qHTS for spleen associated tyrosine kinase inhibitor (SYKi) naive MV4-11 cells (AID 1963823); also: nearly all actives have a fitted effect of over 40% in size
# Conditions: MV4-11 AML viability, CellTiter-Glo luminescence, 72 h; viability (% of control): at 45 µM (top of the series)
# From the text: Department of Medicine, Hematology/Oncology
# University Hospital Frankfurt, Germany.
# Trials have shown promising clinical activity of the selective SYK inhibitor entospletinib in patients with high expressing HOXA9/MEIS1 acute leukemias. As the development of resistance mechanisms is a common problem in the use of targeted drugs, we performed a chemical library screen to identify drug sensitivities in SYK inhibitor resistant AML cells. […] Glucocorticoids are potent immunosuppressants which work in part by inhibiting the transcription of cytokine genes.
# Described herein is a viability screen to look for activity in the SYK inhibitor naive cell line against four NCATS compound libraries (MIPE 5.0, NPC, NPACT, and Kinase) totaling 11372 compounds. Active hits were reacquired for confirmation and further secondary assay testing.
# SEQUENCE No. (e.g., 1, 2, 3, etc.); […] (e.g., Cells, Incubation, Reagent, etc.); VALUE; DESCRIPTION.
# 1; Media; 2uL; white, solid-bottom Corning assay plate.
# 2; Compounds; 23nL; Echo acoustic dispenser.
# 3; Cell; 5uL; 500 cells per well.
# 4: Incubation; 72hr; 37 C, 5% CO2, 95% humidity.
# 5; Reagent; 3uL; CellTiter-Glo reagent (Promega).
# 6; Incubation; 10min; room temperature.
# 7; Detection; Luminescence; ViewLux plate reader (PerkinElmer).
# NOTES (numbers refer to Sequence numbers above
# 1. Quantitative high-throughput screening (qHTS) of small molecule compounds was conducted on naive SYKi MV4-11 cell line.
# 2. Twenty-three nanoliter of small molecule compounds were added to each assay plates using the Echo acoustic dispenser (Beckman Coulter).
# 3. Cells were seeded into the assay plates at a final density of 500 cells in 5uL of media per well using the Multi-drop Combi dispenser.
# 4. Plates were covered with stainless steel gasketed lids and incubated for 72 hours at standard cell culture conditions.
# 5. Viability was assessed by adding 3uL of CellTiter-Glo detection reagent (Promega).
# 6. Plates were covered with gasket lids and incubated for 10 minutes at room temperature.
# 7. Luminescence was measured on a ViewLux plate reader (PerkinElmer).
# Potency is read from the fitted curve at half-maximal effect; tags tell the direction and shape of the fitted curve.
Structure (SMILES),viability (% of control),Potency
CC(=O)O[C@H]1[C@H](O[C@H]2CC[C@]34C[C@]35CC[C@]3(C)[C@@H]([C@@]6(C)CC[C@@H](C(C)(C)O)O6)[C@@H](O)C[C@@]3(C)[C@@H]5C[C@H](O[C@@H]3O[C@H](CO)[C@@H](O)[C@H](O)[C@H]3O)[C@H]4C2(C)C)OC[C@@H](OC(C)=O)[C@@H]1O,inactive: 74.3%,
Nc1ccccc1N,,"inconclusive: 15.4 µM [cytotoxic, partial curve]"
CC(C)c1ccc(CO)cc1O[C@@H]1O[C@H](CO)[C@@H](O)[C@H](O)[C@H]1O,inactive: 73.2%,
C=C(C)C1CCC2(C(=O)O[C@@H]3O[C@H](CO[C@@H]4O[C@H](CO)[C@@H](O)[C@H](O)[C@H]4O)[C@@H](O)[C@H](O[C@@H]4O[C@@H](C)[C@H](O)[C@@H](O)[C@H]4O)[C@H]3O)CCC3(C(=O)O)C(CCC4C5(C)CCC(O)C(C)(C)C5CCC43C)C12 (stereo not given in full),inactive: 84.2% [at 9.25 µM],
C[C@]1(Cn2ccnn2)[C@H](C(=O)O)N2C(=O)C[C@H]2S1(=O)=O,inactive: 75.7%,
Cc1cc(-c2nc(-c3ccc(OC(F)(F)F)cc3)no2)nn1Cc1ccnc(N2CCN(C3CC3)CC2)c1,inactive: 20.4%,
Nc1n[nH]c(N)c1N=Nc1ccc(O)cc1,,active: 9.2 µM
CC(O)(C(=O)C1CC1(CO)COC1OC(CO)C(O)C(O)C1O)C1C(O)CC2C3CC=C4CC(O)CC(O)C4(C)C3C(O)CC21C (stereo not given),,active: 0.217 µM
Cc1cccc(Nc2nc(-c3ccncc3)cs2)c1,,"active: 8.2 µM and inconclusive: 11.8 µM [cytotoxic, partial curve]"
CCCCCCCCCCOc1cc2c(=O)c(C(=O)OCC)c[nH]c2cc1OCC,inactive: 102% [at 4.97 µM],
CN(CC1(C)CCCO1)S(=O)(=O)c1ccc(Cl)c(S(N)(=O)=O)c1 (stereo not given),,"inconclusive: 0.168 µM [rising, full curve]"
COC(=O)Nc1ccc(-c2nc(N3CCOCC3)c3cnn(C4CCN(C(=O)OC)CC4)c3n2)cc1,,active: 0.662 µM
CC(O)COc1ccccc1 (stereo not given),inactive: 69.8%,
CC1(C)C(O)CCC2(C)C1C(O)C=C1COC(=O)C12O (stereo not given),inactive: 95.2%,
Fc1ccc(N2CCN(CCC3OCCc4ccccc43)CC2)cc1 (stereo not given),,"inconclusive: 10.3 µM [cytotoxic, partial curve, poor fit]"
C[C@]12C[C@H](O)[C@H]3[C@@H](CCC4=CC(=O)CC[C@@]43C)[C@@H]1CC[C@@H]2C(=O)CO,inactive: 127%,
c1ccc2c(CCNc3ccc(Nc4ccncc4)cc3)c[nH]c2c1,,active: 1.16 µM and active: 525 nM
NC(=O)NNc1ccccc1,inactive: 74.7%,
O=C1[C@H](Cc2ccc(O)cc2)N2C(=O)CCN(C(=O)NCc3ccccc3)[C@H]2CN1Cc1cccc2ccccc12,,"inconclusive: 3.72 µM [cytotoxic, full curve]"
CC1(CCOC2OC(CO)C(O)C(O)C2O)CCC23OC2(C1)C(O)CC1C(C)(C(=O)O)CCCC13C (stereo not given),inactive: 66.3% [at 17.3 µM],

Structure (SMILES),viability (% of control),Potency
COc1ccc([C@@]2(O)c3c(ccc(CC=C(C)C)c3O)NC(=O)[C@@H]2OC)cc1,,"inconclusive: 11.4 µM [cytotoxic, single point]"
O=C(NS(=O)(=O)c1ccc(Br)s1)c1ccc(Cl)cc1Cl,,active: 7.31 µM
CC(=O)O[C@H]1C[C@@H]2CC[C@H]3[C@H]4C[C@H]([N+]5(C)CCCCC5)[C@@H](OC(C)=O)[C@@]4(C)CC[C@@H]3[C@@]2(C)C[C@H]1[N+]1(C)CCCCC1,,"inconclusive: 0.742 µM [cytotoxic, full curve, poor fit]"
CCOc1cc(N)c(Cl)cc1C(=O)NCC1CN(Cc2ccc(F)cc2)CCO1 (stereo not given),,"inconclusive: 26.6 µM [cytotoxic, single point] and inconclusive: 18.6 µM [cytotoxic, partial curve]"
N[C@H]1C[C@H]1c1ccc(-c2cccc(O)c2)cc1,,"inconclusive: 731 nM [cytotoxic, full curve, poor fit] and inconclusive: 8.2 µM [cytotoxic, partial curve, poor fit]"
C#C[C@]1(O)CC[C@H]2[C@@H]3CCC4=C/C(=N/O)CC[C@@H]4[C@H]3CC[C@@]21CC,,"inconclusive: 23.1 µM [cytotoxic, partial curve]"
CCOC(=O)N1CCC(n2c(=O)[nH]c3cc(Cl)ccc32)CC1,,"inconclusive: 11.9 µM [cytotoxic, partial curve, poor fit]"
C=CC1(C)CC(OC(=O)C(=C)C(O)COC(C)=O)C(C(=C)C(=O)OC)C(O)C1C(=C)CO (stereo not given),,active: 8.93 µM
N[C@@H]1c2cccnc2[C@H](OC(=O)N2CCC(n3c(=O)[nH]c4ncccc43)CC2)CC[C@H]1c1cccc(F)c1F,,"inconclusive: 20.6 µM [cytotoxic, partial curve]"
CC1(C)CCCC2(C)C1C(O)C=C(CO)C2(O)C(=O)O (stereo not given),,"inconclusive: 0.0046 µM [rising, full curve]"
C=C1C(=O)O[C@@H]2C[C@H](C)[C@@H]3CC(=O)[C@H](O)[C@@]3(C)C[C@H]12,,active: 9.2 µM
C[C@]12CCC3=C4CCC(=O)C=C4CC[C@H]3[C@@H]1CC[C@@]2(O)CC#N,inactive: 84%,
CN(Cc1nccs1)c1ncnc2ccc(-c3ccc4c(c3)OCO4)cc12,,"inconclusive: 14.6 µM [cytotoxic, partial curve]"
O=C1NCc2nc3ccccc3c(=O)n2C1Cc1c[nH]c2ccccc12 (stereo not given),,"inconclusive: 10.1 µM [cytotoxic, partial curve, poor fit]"
COc1cc(NC(=O)c2cc(C3CC3)on2)c(OC)cc1Cl,inactive: 61.9%,
C[C@]12CC[C@H](O)CC1=CCC1C2CC[C@]2(C)C(n3cnc4ccccc43)=CCC12 (stereo not given in full),,"inconclusive: 4.61 µM [cytotoxic, full curve]"
O=C(NO)C1(CS(=O)(=O)c2ccc(Oc3ccc(Cl)cc3)cc2)CCOCC1,,"inconclusive: 18.6 µM [cytotoxic, partial curve]"
COc1ccc(S(=O)(=O)N2CCC[C@H]2C(=O)Nc2cc(C)cc(C)c2)cc1,,"inconclusive: 5.17 µM [cytotoxic, partial curve]"
CCCCCCCCOc1ccc(C(=O)c2ccccc2)c(O)c1,inactive: 71.4%,
COC(=O)C[C@H]1[C@]2(C)C3=C(C)[C@H](c4ccoc4)C[C@H]3O[C@@H]2[C@H](OC(C)=O)C2[C@](C)(C(=O)OC)C=CC(=O)[C@@]21C (stereo not given in full),,"inconclusive: 11.2 µM [cytotoxic, single point]"
